Experimental findings from patent publication US20250213715A1, “ANTI-CSPG4 BINDING AGENTS, CONJUGATES THEREOF AND METHODS OF USING THE SAME” (Ardeagen Corporation, priority 2020, published 2025) are described below.

Assay [1] concerns the target T1, CSPG4 (chondroitin sulfate proteoglycan 4) on human tumor cell lines (human, UniProt Q6UVK1 30-2322).
T1 construct: Endogenous CSPG4 on human cell lines (A2058, Malme-3M, A375, SW1353, NCI-H2052); also called HMW MAA; MCSP
The assay can be described thus: flow cytometry on A2058 melanoma cells, 8-point dose curve, anti-hIgG-AF488. The method, then: (§1) Flow Cytometry—Cells were rinsed with PBS (phosphate buffered saline, pH 7.4) and harvested with Versene (Thermo Fisher) prior to incubation with FACs buffer (PBS+1% fetal bovine serum (FBS; source BioSun) containing test antibody or ADCs for 1 h at 4° C. Cells were rinsed and washed with FACs buffer (PBS+1% FBS) and detection was performed with anti-bigG-AF488. Cells were analyzed on a FACs Canto II (BD Biosciences). Quantitative FACs (qFACs) was performed to measure the number of antigen binding sites with the DAKO QifiKit (DAKO, Carpinteria, CA), according to the manufacturer's directions.
(§2) FACs binding of ARD107 antibody and corresponding conjugates to CSPG4-positive cell lines was conducted. The melanoma A2058 and Malme-3M, the SW1353 chondrosarcoma, and the NCI-H1975 lung cell lines were incubated with increasing concentrations (8-point dose curve) of the antibody, conjugates (ARD107-vcMMAE or ARD107-SN38 (ARD107-CL2A-SN-38)), or isotype control (hIgG1) for 1 hr at 4° C. Detection was done with an anti-hIgG-AF488 secondary antibody.
A general note: In flow cytometry, cells or beads pass a laser one at a time.

Assay [2] deals with T1, CSPG4 (chondroitin sulfate proteoglycan …). The experiment in a line: flow cytometry on Malme-3M melanoma cells, 8-point dose curve, anti-hIgG-AF488. As for the experimental part:
as §1, §2

For assay [3] the target is unchanged. The experiment in a line: flow cytometry on SW1353 chondrosarcoma cells, 8-point dose curve, anti-hIgG-AF488. As for the experimental part: as §1, §2
A further assay deals with A2058 melanoma xenograft. The experiment in a line: A2058 melanoma xenograft model. The note with it: Example 8; for tumor burden compared to Vehicle (in words): intravenously once every 4 days for 4 doses, tumors 200 mm3 at start, p<0.025 (vcMMAE preparations), p<0.05 (Gly-vcMMAE). In kind it is in vivo, Balb/c mice. The method, then:
(§3) Mouse Xenograft Studies—All animal experiments were conducted according to IACUC (Institutional Animal Care and Use) approved protocols following AAALAC (Association for Assessment and Accreditation of Laboratory Animal Care) guidelines. Two million A2058 or A375 melanoma cells were implanted into the right flank of Balb/c mice. Tumor growth was monitored twice weekly with caliper measurements and tumor volume calculated with the formula (V=0.5a×b^2 where a=longest and b=shortest diameter). Mice were treated intravenously with test compounds when tumors reached ˜150 mm3. Tumor growth, body weights, and general health of the mice were continuously monitored for 1 week after the final dose of the test agent. Data was graphed with Prism (GraphPad, La Jolla, CA).
Mice were implanted with A2058 melanoma cells and treated with the ADCs when tumors achieved 150 mm^3. ADCs were given intravenously once every 4 days for 4 doses (arrows) or as indicated in the legend.
Mice were implanted with A2058 melanoma cells and treated with the ADCs when tumors achieved 200 mm3. ADCs described in Example 6 were given intravenously once every 4 days for 4 doses (arrows in FIG. 7). ARD107-vcMMAE was given intravenously once every 4 days for 4 doses. […] Treatment of mice with 3 mg/kg ADC yielded complete regressions in some mice (2/8 mice in ARD107-vcMMAE (HIC) and 1/8 mice in the stochastic group).

Another assay addresses T2, NCI-H1975 lung cell line (Homo sapiens, UniProt Q6UVK1).
T2 construct: host or cells: NCI-H1975 lung carcinoma cells
The assay can be described thus: FACS binding to NCI-H1975 lung cells. To be noted: Example 2; NCI-H1975 compared with the melanoma and NCI-H2052 lines. As for the experimental part: as §1, §2
The CSPG4+A2058 and A375 melanoma and the lung NCI-H2052 and NCI-H1975 cell lines were incubated with increasing concentrations of the antibody (6-point dose curve) for 1 hr at 4° C. Detection was done with an anti-hIgG-AF488 secondary antibody.

The subject of a further assay is A375 melanoma xenograft. The assay can be described thus: A375 melanoma xenograft model. The format is in vivo, Balb/c mice. To be noted: Example 5. The method, then:
as §3
Mice were implanted with A2058 melanoma cells and treated with the ADCs when tumors achieved 150 mm3. ARD107-SN38 was given intravenously once every 4 days for 6 doses (arrows). ARD107-vcMMAE was given intravenously once every 4 days for 4 doses.
The results of the in vivo testing of ARD107-vcMMAE and ARD107-SN38 ADCs in the A375 melanoma xenograft model are shown in FIG. 5. Tumor-bearing mice was given ARD107-SN38 intravenously once every 4 days for 6 doses (arrows) or ARD107-vcMMAE once every 4 days for 4 doses. One group of mice was given 8 mg/kg ARD107-SN38 once every 4 days for 4 doses. […]

A further assay has as its system A2058 melanoma cells. The assay can be described thus: Internalization by A2058 melanoma cells (Zenon pHrodo, flow cytometry). In kind it is cell-based, human. The note with it: overnight with pHrodo-labeled secondary antibody. The method, then:
Briefly, A2058 melanoma cells were plated in tissue culture media at 100,000 cells per well in 96-well tissue culture plates. The cells were pre-incubated with the antibodies prior to an overnight incubation with the pHrodo-labeled secondary antibody. The next day, the cells were harvested and analyzed by flow cytometry. Internalization was determined as the fraction of live cells that stained positive for pHrodo-RED. Data was graphed with Prism (GraphPad, La Jolla, CA). All of the humanized antibodies were internalized by the target cells (FIG. 10).

Positions count from the first letter of the chain named.

T2 sequence (Q6UVK1 30-2322): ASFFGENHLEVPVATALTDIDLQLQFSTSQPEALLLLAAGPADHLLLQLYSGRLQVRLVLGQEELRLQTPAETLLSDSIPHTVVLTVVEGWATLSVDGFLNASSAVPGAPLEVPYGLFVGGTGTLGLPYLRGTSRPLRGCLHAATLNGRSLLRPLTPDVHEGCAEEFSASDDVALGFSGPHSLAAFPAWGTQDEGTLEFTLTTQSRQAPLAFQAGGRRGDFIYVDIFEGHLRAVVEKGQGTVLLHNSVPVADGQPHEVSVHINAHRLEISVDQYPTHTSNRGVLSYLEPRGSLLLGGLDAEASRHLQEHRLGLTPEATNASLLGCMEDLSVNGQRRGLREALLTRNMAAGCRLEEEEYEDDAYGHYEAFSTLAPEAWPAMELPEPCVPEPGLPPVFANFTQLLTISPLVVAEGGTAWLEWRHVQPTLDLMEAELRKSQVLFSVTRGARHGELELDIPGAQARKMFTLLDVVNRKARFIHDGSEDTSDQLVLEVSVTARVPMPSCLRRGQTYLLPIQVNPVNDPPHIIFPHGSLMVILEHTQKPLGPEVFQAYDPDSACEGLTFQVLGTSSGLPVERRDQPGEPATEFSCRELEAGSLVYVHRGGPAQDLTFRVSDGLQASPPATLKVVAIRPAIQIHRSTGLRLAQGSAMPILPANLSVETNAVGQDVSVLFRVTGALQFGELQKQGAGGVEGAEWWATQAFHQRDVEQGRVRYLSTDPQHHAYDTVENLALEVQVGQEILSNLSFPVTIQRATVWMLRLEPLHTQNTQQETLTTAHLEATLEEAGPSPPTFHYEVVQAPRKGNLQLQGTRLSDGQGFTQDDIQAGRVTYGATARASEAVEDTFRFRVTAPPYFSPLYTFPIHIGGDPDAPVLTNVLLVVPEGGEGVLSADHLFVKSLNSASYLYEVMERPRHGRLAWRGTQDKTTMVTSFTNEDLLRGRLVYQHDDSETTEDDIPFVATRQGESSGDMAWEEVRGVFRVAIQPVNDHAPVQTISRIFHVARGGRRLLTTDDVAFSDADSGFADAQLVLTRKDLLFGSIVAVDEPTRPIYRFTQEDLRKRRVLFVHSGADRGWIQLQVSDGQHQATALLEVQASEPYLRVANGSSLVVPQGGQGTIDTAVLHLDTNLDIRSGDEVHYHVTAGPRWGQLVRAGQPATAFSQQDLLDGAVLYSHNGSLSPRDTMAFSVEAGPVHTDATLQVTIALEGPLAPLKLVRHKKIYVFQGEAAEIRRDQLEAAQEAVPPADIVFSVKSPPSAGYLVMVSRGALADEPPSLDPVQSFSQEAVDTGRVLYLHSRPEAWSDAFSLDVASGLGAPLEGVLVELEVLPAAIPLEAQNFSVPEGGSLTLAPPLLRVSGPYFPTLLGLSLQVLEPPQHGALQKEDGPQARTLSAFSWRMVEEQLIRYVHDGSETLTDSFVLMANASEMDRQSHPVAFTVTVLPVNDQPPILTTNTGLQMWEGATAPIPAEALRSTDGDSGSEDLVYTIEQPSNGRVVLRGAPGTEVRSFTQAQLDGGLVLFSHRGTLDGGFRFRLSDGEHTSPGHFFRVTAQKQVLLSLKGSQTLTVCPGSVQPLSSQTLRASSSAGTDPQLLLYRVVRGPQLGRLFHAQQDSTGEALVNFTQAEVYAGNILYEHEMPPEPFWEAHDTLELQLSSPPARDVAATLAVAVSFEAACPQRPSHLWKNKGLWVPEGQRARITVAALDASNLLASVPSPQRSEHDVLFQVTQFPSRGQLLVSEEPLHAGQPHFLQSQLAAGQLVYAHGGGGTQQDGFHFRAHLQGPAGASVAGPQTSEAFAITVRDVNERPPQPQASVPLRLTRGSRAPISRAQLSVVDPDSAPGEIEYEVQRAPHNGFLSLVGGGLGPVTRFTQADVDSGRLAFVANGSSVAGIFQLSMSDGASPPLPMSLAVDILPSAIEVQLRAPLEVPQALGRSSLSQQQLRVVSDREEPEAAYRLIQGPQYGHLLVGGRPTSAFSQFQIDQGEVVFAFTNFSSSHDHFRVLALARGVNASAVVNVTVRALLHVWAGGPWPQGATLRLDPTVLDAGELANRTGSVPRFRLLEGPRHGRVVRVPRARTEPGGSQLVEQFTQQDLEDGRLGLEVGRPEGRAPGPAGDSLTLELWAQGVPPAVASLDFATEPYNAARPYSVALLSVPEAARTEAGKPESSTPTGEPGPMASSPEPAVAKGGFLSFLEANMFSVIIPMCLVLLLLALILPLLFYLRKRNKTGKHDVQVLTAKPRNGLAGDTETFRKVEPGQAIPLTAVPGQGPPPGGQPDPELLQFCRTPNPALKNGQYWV

B1: ARD107-vcMMAE (ARD107-mc-vc-PAB-MMAE), prepared by stochastic conjugation (other)
heavy: EVQLQESGPGLVKPSQSLSLTCSVTGYSITSGYYWNWIRQFPGNKLEWMGYITYDGSNNYNPSLKNRISITRDTSKNQFFLKLNSVTTEDTATYYCADFDYWGQGTTLTVSS[… human IgG1 constant region …]
light: DIVLTQSPSSLSASLGDRVTISCSASQGIRNYLNWYQQRPDGTVKLLIYYTSSLHSGVPSRFSGSGSGTDYSLTISNLEPEDIATYYCQQYSKLPWTFGGGTKLEIKRTVAAPSVFIFPPSDEQLKSGTASVVCLLNNFYPREAKVQWKVDNALQSGNSQESVTEQDSKDSTYSLSSTLTLSKADYEKHKVYACEVTHQGLSSPVTKSFNRGEC
modifications: mc-vc-PAB-MMAE drug linker on cysteines freed by TCEP reduction; positions not given; average drug loading 4 per antibody
For orientation: EC50 means the concentration at which the effect is half-maximal. For the molecule B1, the figures for the EC50 in assay [1], in assay [2] and in assay [3] were 0.59 nM, 0.93 nM and 0.27 nM, respectively.

B2: ARD107-vcMMAE (HIC): ARD107-vcMMAE column purified (HIC) for the 4-loaded species (conjugate)
heavy: B1 heavy
light: B1 light
Regarding B2, the “complete regressions, mice” value in the assay with A2058 melanoma xenograft (3 mg/kg ADC intravenously once every 4 days for 4 doses) is 2/8. Further, the “tumor burden compared to Vehicle (in words)” value with A2058 melanoma xenograft was “significantly reduced tumor burden”.

B3: ARD107: anti-CSPG4 antibody, heavy chain SEQ ID NO:3, light chain SEQ ID NO:4; H0L0 chimeric listed as SEQ ID NO: 7 / 8 (antibody)
heavy: B1 heavy
light: B1 light
modifications: Synthetic sequence ARD107 VH-IgG1; Synthetic sequence ARD107 VL-Igkappa
Turning to B3, the “binding (in words)” value in the assay with NCI-H1975 lung cell line was “much less”.

B4: ARD107-CL2A-SN38 (other)
heavy: B1 heavy
light: B1 light
modifications: CL2A-SN38 drug linker on cysteines freed by TCEP reduction; positions not given; average drug loading 8 per antibody
notes: Antibody-drug conjugate of ARD107; also called ARD107-SN38; ARD107-SN-38
Take B4: the EC50 in assay [1] came to 0.53 nM.

B5: ARD107-vcMMAE (DAR4): ARD107-vcMMAE enriched for 4-load by controlled reduction and conjugation (conjugate)
heavy: B1 heavy
light: B1 light
Take B5: the “tumor burden compared to Vehicle (in words)” value with A2058 melanoma xenograft is given as “significantly reduced tumor burden”.

B6: ARD107-SN38 (conjugate)
heavy: B1 heavy
light: B1 light
On to B6, for which, in the assay on A375 melanoma xenograft (12 mg/kg intravenously once every 4 days), the “complete regression (number)” value is 1. Besides, the “reduction of tumor burden (in words)” value in the assay on A375 melanoma xenograft (ARD107-SN38 once every 4 days for 6 doses, ARD107-vcMMAE once every 4 days for 4 doses, intravenously) is given as “effective in reducing tumor burden”.

B7: H1L2: humanized ARD107 antibody, heavy chain SEQ ID NO: 33, light chain SEQ ID NO: 38 (antibody)
heavy: EVQLQESGPGLVKPSQTLSLTCTVSGYSITSGYYWNWIRQFPGNKLEWMGYITYDGSNNYNPSLKNRVTISRDTSKNQFSLKLSSVTAADTAVYYCADFDYWGQGTTVTVSS[… human IgG1 constant region …]
light: B1 light with V3Q, L15V, S22T, R39K, S72T, N77S, E79Q, I83F
modifications: Synthetic sequence humanized ARD107 H1 heavy chain; Synthetic sequence humanized ARD107 L2 light chain
On to B7, for which the “internalization by target cells” value in the assay with A2058 melanoma cells is “better internalization”.
